Laboratory results from patent US8067424B2, “Selective inhibitors for cyclin-dependent kinases” (Emory University, priority 2007, dated 2011).
Where two headings read alike, the source gives them in different places.

What was measured:
NCI-H322M [1] = test: cells; details: Homo sapiens
NCI-H322M [2] = details: for Mean Optical Densities / Percent Growth: NCI-H322M

CC(C)c1cnn2c(NCc3ccccc3)cc(N[C@@H](CO)[C@H](O)CO)nc12 [ICEC0318, (3S)-3-(7-(Benzylamino)-3-isopropylpyrazolo[1,5-a]pyrimidin-5-ylamino)butane-1,2,4-triol]
GI50 (NCI-H322M [1]): 361 nM
CC50 (NCI-H322M [1]; read-out: LC50): > 100 µM
TGI (NCI-H322M [2]; NCI-H322M (Non-Small Cell Lung Cancer)): >1.00E−4
Mean Optical Densities (NCI-H322M [2]; log10 concentration −4.0): 0.893
Percent Growth (NCI-H322M [2]; log10 concentration −4.0): 18%
Mean Optical Densities (NCI-H322M [2]; log10 concentration −5.0): 0.941
Percent Growth (NCI-H322M [2]; log10 concentration −5.0): 22%
Mean Optical Densities (NCI-H322M [2]; log10 concentration −6.0): 0.927
Percent Growth (NCI-H322M [2]; log10 concentration −6.0): 21%
Mean Optical Densities (NCI-H322M [2]; log10 concentration −7.0): 1.663
Percent Growth (NCI-H322M [2]; log10 concentration −7.0): 87%
Mean Optical Densities (NCI-H322M [2]; log10 concentration −8.0): 1.904
Percent Growth (NCI-H322M [2]; log10 concentration −8.0): 109%
